According to PubChem BioAssay AID360 (National Center for Advancing Translational Sciences (NCATS), 2006):
Out of some 48,000 compounds screened, about 550 (1.1%) were called active. About 4% were inconclusive and are not listed. Rule as the data show it: active = potency below about 15 µM; inconclusive = mostly about 16 µM to 33 µM; inactive = weaker than that. The list shows a part of the results.

The compounds below were run against Lysosomal acid glucosylceramidase (Homo sapiens) (UniProt P04062) (assay: Glucocerebrosidase). Settings: purified enzyme, resorufin glucoside fluorescence (screen aimed at inhibitors), 20 min.
Procedure, shortened: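 Normal human glucocerebrosidase (0.2 nM final) was assayed with resorufin β-D-glucopyranoside (30 uM final) in 50mM citric acid/KH2PO4, 10mM sodium taurocholate, 0.01% tween-20, pH 5.9. Compounds were titrated; fluorescence (Ex 548, Em 600) read after 20 min at RT.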
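Also: the screen sought inhibitors.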
Potency is read from the fitted curve at half-maximal effect.

UniProt P04062, sequence (P04062 whole entry, looked up): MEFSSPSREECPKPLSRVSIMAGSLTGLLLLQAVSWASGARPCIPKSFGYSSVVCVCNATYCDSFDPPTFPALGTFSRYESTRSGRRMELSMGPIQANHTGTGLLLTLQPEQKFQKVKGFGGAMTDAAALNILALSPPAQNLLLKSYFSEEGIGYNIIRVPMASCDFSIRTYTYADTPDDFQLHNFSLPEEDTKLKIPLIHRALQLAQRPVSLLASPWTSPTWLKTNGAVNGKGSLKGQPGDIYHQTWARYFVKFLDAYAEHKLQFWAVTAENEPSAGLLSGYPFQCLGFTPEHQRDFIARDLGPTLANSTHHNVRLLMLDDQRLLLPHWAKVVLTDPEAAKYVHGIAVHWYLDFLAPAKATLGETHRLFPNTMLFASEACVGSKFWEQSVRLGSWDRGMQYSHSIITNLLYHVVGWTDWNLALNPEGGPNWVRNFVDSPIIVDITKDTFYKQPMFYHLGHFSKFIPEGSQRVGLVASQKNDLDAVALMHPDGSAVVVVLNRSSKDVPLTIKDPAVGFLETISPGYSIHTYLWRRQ

Potency, inactive:
COc1ccc2cc(C(c3nnnn3C(C)(C)C)N3CCSCC3)c(=O)[nH]c2c1 (configuration not stated) > 76.9 µM, COc1cc(NC(=O)CSc2nnc3n2C(C)(C)Cc2ccccc2-3)cc(OC)c1 > 76.9 µM, COCCN1C(=O)C(=O)/C(=C(/O)c2cccc(OC)c2)C1c1ccc(C)o1 (configuration not stated) > 76.9 µM, O=C(CN1CCC(c2nc3ccccc3s2)CC1)NCc1cccs1 > 76.9 µM, Cc1ccc2c(CC(=O)NCC3COc4ccccc4O3)coc2c1 (configuration not stated) > 76.9 µM, CN1CCN(c2nc3c(c(=O)[nH]c(=O)n3C)n2CCCSc2ncccn2)CC1 > 76.9 µM, CC(C)CC(=O)Nc1ccccc1-c1nnn(CC(=O)N2CCOCC2)n1 > 76.9 µM, COc1ccc2c(c1)cc1n2CCN2CCCN=C12 > 76.9 µM, CCOC(=O)C1CCCN(C(=O)c2cn(C)c3ccc(S(=O)(=O)N4CCCC4)cc3c2=O)C1 (configuration not stated) > 76.9 µM, COC(=O)Nc1ccc(S(=O)(=O)N2CCCC(C(=O)Nc3cccc4c3OCCO4)C2)cc1 (configuration not stated) > 76.9 µM, O=C(NCC1CCCO1)c1ccccc1-c1nc(-c2ccc(F)cc2)no1 (configuration not stated) > 76.9 µM, C=CCn1c(-c2cc(OC)c(OC)c(OC)c2)n[nH]c1=S > 76.9 µM, Cc1ccc2c(c1)c1c3n2CC(=C2C(=O)OC(C)(C)OC2=O)NC3CCC1 (configuration not stated) > 76.9 µM, CS(=O)(=O)N1CCc2cc(S(=O)(=O)N3CCN(Cc4ccc5c(c4)OCO5)CC3)ccc21 > 76.9 µM, Cc1ccc(S(=O)(=O)N2CCC(C(=O)O)CC2)cc1C(=O)O > 76.9 µM, Cc1ccccc1N(CC(=O)NCC1CCCO1)C(=O)C1(C)CC(=O)N=C2C=CC=CN21 (configuration not stated) > 76.9 µM, COC(=O)CSc1nnc(CNC(=O)c2ccc(S(=O)(=O)N3CCCCC3)cc2)n1C > 76.9 µM, CCCCCn1c(=NC(=O)c2ccco2)c(C(=O)OCC)cc2c(=O)n3ccccc3nc21 > 76.9 µM, CCOCc1nnc(NS(C)(=O)=O)s1 > 76.9 µM, COc1ccc(Cn2c(C3CC3)nc3ccc(NC(=O)C4CC4)cc3c2=O)cc1 > 76.9 µM, Cc1nnc2n(Cc3ccccc3)c(=O)c3c4c(sc3n12)COC(C)(C)C4 > 76.9 µM, COc1ccccc1NS(=O)(=O)c1ccc(C)c(C(=O)NCC2CCCO2)c1 (configuration not stated) > 76.9 µM, Cc1cccc(NC(=O)CCN2CC(C)OC(C)C2)c1 (configuration not stated) > 76.9 µM, NC(=O)C1CCN(Cc2nnnn2Cc2ccco2)CC1 > 76.9 µM, C=CCSc1nnc(NC(=O)CSc2nc3ccccc3o2)s1 > 76.9 µM, Cc1ccc(NC(=O)CCC(=O)O)cc1F > 76.9 µM, COCC(=O)N1CCCc2ccccc21 > 76.9 µM, Cc1ccc(N2CC(C(=O)Nc3ccc(S(=O)(=O)N4CCCC4)cc3)CC2=O)cc1 (configuration not stated) > 76.9 µM, COC(=O)c1ccccc1COn1c(=O)c(C)[n+]([O-])c2ccccc21 > 76.9 µM, O=C1OC(Nc2ccc3c(c2)OCO3)c2ccccc21 (configuration not stated) > 76.9 µM, O=C(c1ccc2c(c1)C(=O)N(c1ccc(Cl)cc1)C2=O)N1CCN(c2ccccn2)CC1 > 76.9 µM, O=C(O)c1ccc(COc2cccc(CO)c2)cc1 > 76.9 µM, CCCNc1nc2c(c(=O)n(C)c(=O)n2C)n1Cc1cccc(C)c1 > 76.9 µM, O=C(NCc1ccccn1)Nc1ccc(Cl)c(Cl)c1 > 76.9 µM, CCNC(=O)NC(=O)COC(=O)CNC(=O)COc1ccccc1 > 76.9 µM, O=C(Nc1nnc(-c2ccco2)s1)C1CC1 > 76.9 µM, CN(C)c1cccc2c(S(=O)(=O)Nc3ccccn3)cccc12 > 76.9 µM, CC(=O)Nc1cccc(NC(=O)CSc2nnc(Cc3cccn3C)n2-c2ccc(C)cc2)c1 > 76.9 µM, CCc1ccccc1NC(=O)CN(C)C(=O)CN1C(=O)NC2(CCCCCC2)C1=O > 76.9 µM, Cc1ccc(NC(=O)N2CCCC2C(=O)NCCC2=CCCCC2)cc1 (configuration not stated) > 76.9 µM, O=C(NCC1c2ccccc2CCN1C(=O)CN1CCOCC1)C1CCCCC1 (configuration not stated) > 76.9 µM, Cn1c(=O)c2c(nc(CN3CCN(CCO)CC3)n2Cc2cccc3ccccc23)n(C)c1=O > 76.9 µM, Cc1cc(=O)[nH]c(SCC(=O)N2CCC(C(N)=O)CC2)n1 > 76.9 µM, CCc1ccc(CCC(=O)Nc2sc3c(c2C#N)CCCC3)o1 > 76.9 µM, COc1ccc2c(C(=O)CN3CC(C)OC(C)C3)c[nH]c2c1 (configuration not stated) > 76.9 µM, CC(NC(=O)c1cccc(N2CCCC2=O)c1)c1ccc2c(c1)OCCO2 (configuration not stated) > 76.9 µM, O=C(Nc1ncnc2c1ncn2C1OC(COC(=O)c2ccccc2)C(F)C1O)c1ccccc1 (configuration not stated) > 76.9 µM, Cn1nc(-c2ccc(N3CCOCC3)c(NS(=O)(=O)c3ccccc3)c2)c2ccccc2c1=O > 76.9 µM, O=C(NC12CC3CC(CC(C3)C1)C2)N1CCN(C(=O)C2CCCO2)CC1 (configuration not stated) > 76.9 µM, O=C(CSc1nnc(-c2ccccn2)n1Cc1ccccc1)Nc1ccc2c(c1)OCO2 > 76.9 µM, CCSc1nnc(NC(=O)c2csc(C)c2)s1 > 76.9 µM, COC(=O)c1ccc(CSc2nnc(NCc3ccccc3)s2)o1 > 76.9 µM, COCCN(C(=O)Cn1nnc2ccccc21)C(C(=O)NC1CCCC1)c1cccc(OC)c1OC (configuration not stated) > 76.9 µM, Clc1ccccc1-c1nn2c(-c3ccncc3)nnc2s1 > 76.9 µM, CC(C)Sc1nc(NCc2ccco2)c2c3c(sc2n1)COC(C)(C)C3 > 76.9 µM, CCn1nnc(NC(=O)CSc2ccc(Cl)cc2)n1 > 76.9 µM, COc1ccc(-c2cc(C(=O)N(C)Cc3ccccc3)no2)cc1OC > 76.9 µM, CC(C)C(=O)N(c1ccc2oc(=O)sc2c1)S(=O)(=O)c1cccs1 > 76.9 µM, O=C(NC1CCCc2ccccc21)C1CCN(S(=O)(=O)c2cnc[nH]2)CC1 (configuration not stated) > 76.9 µM, O=C(c1ccc(C(=O)N2CCOCC2)nc1)N1CCOCC1 > 76.9 µM, Cc1nc(SCn2nnc3ccccc3c2=O)c2c(C)c(C)sc2n1 > 76.9 µM, O=C(Cn1nnc(-c2ccc(CN3CCOCC3)cc2)n1)N1CCCc2ccccc21 > 76.9 µM, c1nc(N2CCNCC2)c2sc3nc(N4CCOCC4)c4c(c3c2n1)CCC4 > 76.9 µM, COc1cc(C(=O)Nc2cccc(-c3nc4ncccc4o3)c2C)cc(OC)c1OC > 76.9 µM, CCCC(=O)Nc1cc(C)c(NC(=O)c2ccncc2)cn1 > 76.9 µM, Cc1ccc(CS(=O)(=O)CCC(=O)NCc2cccs2)cc1 > 76.9 µM, O=C(CCC(=O)N1CCCc2ccccc21)N1CCN(S(=O)(=O)c2ccccc2)CC1 > 76.9 µM, CCn1c(Cn2nnc(-c3ccccc3)n2)nnc1SCC(=O)N1CCOCC1 > 76.9 µM, O=C(NCC1CCCO1)C1CCN(C(=O)c2ccc(Br)cc2)CC1 (configuration not stated) > 76.9 µM, O=C(C1CCN(c2nnc(-n3cccc3)s2)CC1)N1CCN(c2cccc(C(F)(F)F)c2)CC1 > 76.9 µM, O=C(CSc1nnnn1C1CCCCC1)NCc1ccc2c(c1)OCO2 > 76.9 µM, O=C(NC1CC2CCC1C2)C1CCN(S(=O)(=O)c2ccc(-c3nn[nH]n3)cc2)CC1 (configuration not stated) > 76.9 µM, CCOC(=O)C1CCCN(C(=O)c2cc3ncc(Br)cn3n2)C1 (configuration not stated) > 76.9 µM, CCCCn1c(N)c(N(CCOC)C(=O)CSc2nc3ccc(C)cc3[nH]2)c(=O)[nH]c1=O > 76.9 µM, O=C(C1CCCO1)N1CCC(c2nc3ccccc3[nH]2)CC1 (configuration not stated) > 76.9 µM, Cc1ccc2nc(N3CCN(Cc4nnnn4Cc4ccccc4)CC3)c(C#N)cc2c1 > 76.9 µM, O=C(Cn1cnc2c(cnn2-c2ccccc2)c1=O)N1CCN(c2ccc(F)cc2)CC1 > 76.9 µM, CCOc1cccc2cc(C(=O)N3CCc4ccccc43)c(=O)oc12 > 76.9 µM, COc1ccc(CCNC(=O)C2CCCN(C(=O)N(C)C)C2)c(OC)c1 (configuration not stated) > 76.9 µM, O=C(O)c1cc2cc(Cl)cc(Cl)c2oc1=O > 76.9 µM, O=C(CSc1nccc(=O)[nH]1)N1CCCc2ccccc21 > 76.9 µM, O=C(O)c1c(-c2ccccc2)c2oc3ccccc3c2[nH]c1=O > 76.9 µM, N#CC1=C(N)Oc2c(ccc3cccnc23)C1c1cccnc1 (configuration not stated) > 76.9 µM, O=C(Nc1nncs1)c1c(F)c(F)c(F)c(F)c1F > 76.9 µM, S=c1[nH]nc(C23CC4CC(CC(C4)C2)C3)n1Cc1ccco1 > 76.9 µM, Cc1ccc(OCC(=O)N2CCCCC2)c(Br)c1 > 76.9 µM, O=S(=O)(NC1CC1)c1ccc(S(=O)(=O)N2CCCC(c3nc(-c4cccnc4)no3)C2)cc1 (configuration not stated) > 76.9 µM
